Test results: PMC4336329 (PLoS ONE, 2015)
Screen size: about 310,000 compounds; about 2,200 (0.71%) showed an effect of 50% or more. Effects have a minus sign here. Some of the results follow.

Biological target: human ether-à-go-go-related gene (hERG) potassium channel (human, UniProt Q12809)
Test: primary screen, population patch clamp on CHO cells stably expressing hERG

human ether-à-go-go-related gene (hERG) potassium channel, sequence (Q12809 whole entry, looked up): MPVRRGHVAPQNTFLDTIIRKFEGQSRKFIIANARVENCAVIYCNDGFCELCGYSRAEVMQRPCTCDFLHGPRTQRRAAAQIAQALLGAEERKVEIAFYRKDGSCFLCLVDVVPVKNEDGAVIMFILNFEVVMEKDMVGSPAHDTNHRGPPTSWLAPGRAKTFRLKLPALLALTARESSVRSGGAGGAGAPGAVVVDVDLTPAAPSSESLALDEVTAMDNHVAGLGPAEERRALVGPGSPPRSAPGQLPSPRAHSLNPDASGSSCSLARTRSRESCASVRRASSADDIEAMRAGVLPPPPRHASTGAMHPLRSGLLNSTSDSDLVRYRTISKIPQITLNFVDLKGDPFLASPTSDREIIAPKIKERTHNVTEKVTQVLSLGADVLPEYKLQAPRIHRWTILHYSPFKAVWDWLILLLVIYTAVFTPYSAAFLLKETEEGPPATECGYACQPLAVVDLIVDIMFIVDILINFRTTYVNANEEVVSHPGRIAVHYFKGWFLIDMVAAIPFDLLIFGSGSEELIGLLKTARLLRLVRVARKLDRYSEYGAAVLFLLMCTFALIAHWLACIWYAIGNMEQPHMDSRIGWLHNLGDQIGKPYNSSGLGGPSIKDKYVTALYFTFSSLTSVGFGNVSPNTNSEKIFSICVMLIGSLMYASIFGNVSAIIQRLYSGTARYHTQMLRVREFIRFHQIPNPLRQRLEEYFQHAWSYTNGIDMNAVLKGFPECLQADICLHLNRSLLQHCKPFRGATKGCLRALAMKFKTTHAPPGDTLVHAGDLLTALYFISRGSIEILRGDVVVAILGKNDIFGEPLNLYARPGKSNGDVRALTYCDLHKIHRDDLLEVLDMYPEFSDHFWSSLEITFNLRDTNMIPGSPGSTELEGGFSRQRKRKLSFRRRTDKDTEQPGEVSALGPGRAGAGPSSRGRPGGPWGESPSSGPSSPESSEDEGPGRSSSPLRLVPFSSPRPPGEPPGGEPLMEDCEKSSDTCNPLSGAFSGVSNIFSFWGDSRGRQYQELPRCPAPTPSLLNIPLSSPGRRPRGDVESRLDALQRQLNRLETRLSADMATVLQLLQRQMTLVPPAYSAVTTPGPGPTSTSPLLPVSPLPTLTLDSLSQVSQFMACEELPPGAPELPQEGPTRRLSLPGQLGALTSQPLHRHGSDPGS

| SMILES | hERG current change (%, negative = inhibition) at 1uM |
| --- | --- |
| CCCCCN(C(=O)CCC(=O)OCc1cccc(Cl)c1)c1c(N)n(CCCC)c(=O)[nH]c1=O | 9.55% |
| NNC(=O)CN1C(c2ccc(Cl)cc2)=Nc2ccc(Br)cc2C1c1ccccc1 (centres unmarked) | -17.2% |
| C=CCN1C(=O)c2ccc(C(=O)N3CCN(c4ccccc4OC)CC3)cc2C1=O | 7.1% |
| CC(C)C1Cc2c(C#N)c(N)sc(=S)c2CO1 (centres unmarked) | 0.897% |
| O=C(N/N=C/c1ccncc1)c1ccc(COc2cccc3cccnc23)cc1 | -22.9% |
| CCCOc1ccc(NC(=O)OC2CCN(C)CC2)cc1.O=C(O)/C=C/C(=O)O | -0.599% |
| O=C(NCCc1ccc(Cl)cc1)c1cnccn1 | 11.8% |
| CC(=O)OC1C([N+]2(C)CCCCC2)C[C@H]2C3CC[C@H]4C[C@H](OC(C)=O)C([N+]5(C)CCCCC5)CC4(C)[C@H]3CCC12C.[Br-] (some centres unmarked) | 8.82% |
| Cc1ccc2nsnc2c1S(=O)(=O)Nc1ccccc1C(=O)O | 4.93% |
| CC(OC(=O)Cc1c(F)cccc1Cl)C(=O)NC1(C#N)CCCCC1 (centres unmarked) | -11.4% |
| CCOc1ccc(N(CC(=O)NCCOc2ccccc2OC)S(=O)(=O)c2ccccc2)cc1 | 3.23% |
| Cc1ccc(N2C(=O)N(CC(=O)Nc3ccc(C)cc3[N+](=O)[O-])C(=O)C2C)cc1 (centres unmarked) | 13.6% |
| Clc1cccc2c1CCN(Cc1nc(-c3cnccn3)no1)C2 | 11.9% |
| COc1cc(/C=C/C(=O)OCC(=O)NC2CCS(=O)(=O)C2)ccc1O (centres unmarked) | 7.58% |
| Cc1ccc(-n2c(C)cc(/C=C3/C(=O)NC(=O)N(Cc4ccco4)C3=O)c2C)cc1 | 16.5% |
| CCO[C@H]1OC(C(=O)N2CCOCC2)=C[C@@H](C2CC2)[C@@H]1CCCO | 16.1% |
| CC1CCN(S(=O)(=O)c2ccccc2)CC1 | 8.5% |
| FCCCOc1ccc(-c2nccc(-c3ccc(F)cc3)n2)cc1 | 5.11% |
| CN(Cc1ccc(Cl)s1)C(=O)CCl | -22.8% |
| Cc1cc(N/N=C/c2ccccc2Cl)nc(NCc2ccccc2)n1 | 10.7% |
| CC(C)CCn1c(N)c(S(=O)(=O)c2cccs2)c2nc3ccccc3nc21 | -7.19% |
| Cc1cc(OCC(=O)Nc2cc(S(=O)(=O)N3CCOCC3)ccc2N2CCCC2)ccc1C(C)C | 5.09% |

| SMILES | hERG current change (%, negative = inhibition) at 1uM |
| --- | --- |
| COc1ccccc1-c1cc(C(=O)NC2CCN(C)CC2)c2ccc(Cl)c(C)c2n1 | 7.38% |
| COc1cccc(NC2=NCCCS2)c1 | 7.06% |
| CCOC(=O)c1c(C)nn(-c2ccc(NC(=O)c3c(C)noc3C)cc2)c1C | 19.5% |
| CCn1c(SCC(=O)Nc2ccc3c(c2)OCCO3)nnc1C(C)C | 2.5% |
| CCCCCCn1c(-c2cccs2)n[nH]c1=S | 7.13% |
| CCCc1[nH]nc2c1C(c1ccc(OC(=O)N3CCOCC3)cc1)C(C#N)=C(N)O2 (centres unmarked) | 9.16% |
| NS(=O)(=O)c1ccc(CCN2C(=O)/C(=C\c3ccc(Cl)cc3)SC2=S)cc1 | 13.9% |
| Cc1ccc(C)c(NS(=O)(=O)c2cc(C(=O)N3CCCC3)ccc2Cl)c1 | 9.6% |
| CCN(CC)c1ccc(/C=N/OCC(=O)N2CCCc3ccccc32)cc1 | 39.7% |
| COc1cccc(C(=O)Cn2c(N3CCOCC3)nc3c2c(=O)n(C)c(=O)n3C)c1 | 15.5% |
| COc1cc(NC(=O)COc2cccc(C)c2C)ccc1NC(=O)c1ccco1 | 15.6% |
| Cc1ccc(-n2ncc3c2ncn2c(C)nnc32)cc1C | 2.23% |
| O=C(NCCc1ccccc1)c1ccccc1F | 22.4% |
| O=C1CCC/C(=N/NC(=O)c2sc3ccccc3c2Cl)C1 | 8.96% |
| Cc1ccc(Nc2nc(C)nc3c2oc2ccccc23)cc1 | 11.5% |
| CC(=O)c1cc(-c2ccc(F)cc2)n(CCC(=O)NC(C)(C)C)c1C | 7.75% |
| COC(=O)c1ccccc1NC(=O)c1ccc(COc2cc(C)cc(C)c2)o1 | 5.13% |
| O=C(N1CCCCCC1)N1CCN(C(=O)N2CCOCC2)CC1 | -8.91% |
| COc1c(C)cc(C(=O)C2CCCN(C(=O)Cn3ccc(C)n3)C2)cc1C (centres unmarked) | 3.51% |
| COc1cc2c(cc1OC)CN(CC(=O)NC(=O)NCc1ccccc1)CC2 | -0.579% |
| C=CCc1ccc(O)c(-c2cc(CC=C)ccc2O)c1 | 12.9% |
| Cn1nc(C(C)(C)C)c([N+](=O)[O-])c1C(N)=O | 10.1% |
